Test results published in PubChem BioAssay AID686978 (National Center for Advancing Translational Sciences (NCATS), 2013).
In all, about 420,000 compounds went through this assay and about 64,000 (15%) were called active. The shares of active, inactive and inconclusive entries below differ from those in the screen. Calls come from the whole dose curve; as a rule, active = well fitted inhibition curve with a large enough effect; inconclusive = small, poorly fitted or top-dose-only effect; inactive = flat fitted curve, though single readings scatter. No potency is given beside an inconclusive call; the fits are too rough.

Test: qHTS for Inhibitors of human tyrosyl-DNA phosphodiesterase 1 (TDP1): qHTS in cells in absence of CPT; note: nearly all actives have a fitted effect of over 55% in size
Settings: DT40 Tdp1-/- hTDP1 cells, no CPT, ATP luminescence, 48 h; activity change, negative = growth inhibition: at 46.2 µM (top of the series) unless noted
In short: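 Chicken DT40 Tdp1-/- cells stably complemented with human TDP1 were seeded at 400 cells/well with DMSO in place of 20 nM camptothecin. After compound pinning, cells grew at least 48 hr at 37 °C; viability read by CellTiter-Glo luminescence.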
% is set by controls: 0 for no effect and ±100 for the full control effect; potency is the fitted concentration of half-maximal effect; tags give direction and shape of the fitted curve.

| Structure (SMILES) | Potency | activity change, negative = growth inhibition |
| --- | --- | --- |
| CCOc1ccc(S(=O)(=O)N2CCN(c3nc(-c4ccccc4)nc4ccccc34)CC2)cc1OCC | inconclusive [inhibitor, single point] |  |
| CCN(CC)c1cc(C)c2cc(NC(=O)c3ccc(F)cc3Cl)ccc2n1 | inconclusive [inhibitor, single point] |  |
| Cc1ccc2nc(SCC(=O)NCc3ccco3)c(C)cc2c1 | inconclusive [inhibitor, single point] |  |
| Fc1ccccc1NC(=S)NCCc1ccccc1 | active: 9.2 µM |  |
| CC1CC(C)CN(C(=O)c2cc3c(s2)CCC3)C1 (stereo not given) | inconclusive [inhibitor, single point] |  |
| Cc1ccc(NCc2nnc(SCC(=O)c3ccccc3)o2)c(C)c1 | inconclusive [inhibitor, single point] |  |
| O=C(Nc1cccc(C(F)(F)F)c1)C12CC3CC(CC(C3)C1)C2 | inactive |  |
| CC(=O)c1c(C)[nH]c(C(=O)N2CCN(S(=O)(=O)c3ccc(F)c(F)c3)CC2)c1C | inconclusive [inhibitor, full curve, poor fit] |  |
| O=[N+]([O-])c1ccc(/C=N/NS(=O)(=O)c2ccc(Cl)cc2)o1 | active: 16.4 µM |  |
| CSc1ccccc1C(=O)OCC(=O)Nc1ccc(N2CCOCC2)cc1 | inconclusive [inhibitor, single point] |  |
| O=Cc1cn(CCOc2ccccc2)c2ccccc12 | inconclusive [inhibitor, single point] |  |
| CC(C)C1Cc2c(sc3ncnc(NN)c23)CO1 (stereo not given) | active: 11.6 µM |  |
| COc1ccc(-n2nc3ccc(NS(C)(=O)=O)cc3n2)cc1Cl | inactive |  |
| COc1ccc(C2CC(=O)N(Cc3ccccc3)c3c2c(C)nn3-c2nc(C)cc(C)n2)c(OC)c1 (stereo not given) | inconclusive [inhibitor, single point] |  |
| O=C(NC1CCCCC1)C(c1ccncc1)N(C(=O)c1csnn1)c1cccc(F)c1 (stereo not given) | inactive |  |
| COC(=O)N/N=C(\C)c1ccc2ccccc2c1OC(F)F | inconclusive [inhibitor, single point] |  |
| CC(C)CN(C(=O)COC(=O)C12CC3CC(CC(O)(C3)C1)C2)c1c(N)n(Cc2ccccc2)c(=O)[nH]c1=O | inactive |  |
| CCOc1cc(C(=O)NCCN2C(=O)S/C(=C\c3cccnc3)C2=O)cc(OCC)c1OCC |  | inconclusive: -38.9% [inhibitor] |
| COc1ccc(OC)c2[nH]c(=O)c(CCNC(=O)c3ccc(S(=O)(=O)N4CCCCC4)cc3)cc12 | inconclusive [inhibitor, single point] |  |
| Cc1ccccc1CNC(=O)Nc1ccc2c(c1)N(C)C(=O)c1ccccc1S2 | active: 16.4 µM |  |
| COc1ccc(Oc2nc3ccccc3n3cccc23)cc1 |  | inconclusive: -31.5% [inhibitor] |
| CCc1ccc(-c2nc(CN3CCC(C(=O)NCc4ccccc4OC)CC3)c(C)o2)cc1 | inconclusive [inhibitor, single point] |  |
| CC(C)C(=O)Nc1ccc(C(=O)Nc2nnc(C(C)C)s2)cc1 | inconclusive [inhibitor, single point] |  |
| O=C(Nc1nc(-c2ccc3ccccc3c2)cs1)C1CCN(S(=O)(=O)c2cccs2)CC1 | inconclusive [inhibitor, partial curve] |  |

| Structure (SMILES) | Potency | activity change, negative = growth inhibition |
| --- | --- | --- |
| N#CCC(=N)N1CCN(c2ccccc2Cl)CC1 | inactive |  |
| COCCN(C(=O)c1ccccc1F)c1nc(-c2ccc(OC)cc2)cs1 | inconclusive [inhibitor, single point] |  |
| O=c1cc(-c2ccccc2)c2ccc3c(c2o1)CN(Cc1ccccc1)CO3 | inconclusive [inhibitor, partial curve] |  |
| CCN(CC)S(=O)(=O)c1cc(NC(=O)CSc2n[nH]c(N)n2)ccc1C | inactive |  |
| Cc1cc2c(c(C#N)c1C)NC=NC2C (stereo not given) | inconclusive [inhibitor, partial curve] |  |
| O=c1cc(CN2CCOCC2)c2ccc(O)c(O)c2o1 | inconclusive [inhibitor, single point] |  |
| COc1ccccc1-c1coc2cc(OC(=O)N3CCOCC3)ccc2c1=O | inconclusive [inhibitor, single point] |  |
| O=C(O)c1c(Cl)cccc1Nc1ccccc1 | active: 23.1 µM |  |
| C=CCn1c(NCc2ccco2)nc2ccccc21 | inactive |  |
| CCC(=O)N1CCc2cc(Br)cc(S(=O)(=O)CCC(=O)NCCc3ccccc3)c21 | inconclusive [inhibitor, single point] |  |
| Cc1cc(C(=O)C(=O)N(C)C)c(C)n1-c1ccc(Cl)cc1 | active: 18.4 µM |  |
| CCc1ccc(NS(=O)(=O)c2ccc3[nH]cc(C(=O)N(C)Cc4ccco4)c(=O)c3c2)cc1 | active: 14.6 µM |  |
| Cc1cc(/C=N/n2cnnc2)c(C)n1-c1ccc(Cl)cc1Cl | inconclusive [inhibitor, partial curve] |  |
| O=C1OCCC1Sc1nnc(-c2cccnc2)n1-c1ccccc1F (stereo not given) | inactive |  |
| Fc1ccccc1CSc1ncnc2c1ncn2C1CCCCO1 (stereo not given) | inconclusive [inhibitor, single point] |  |
| N#Cc1ccc(OCCN2CCc3ccccc3C2)cc1 | inactive |  |
| O=C(c1ccccc1)N1N=C(C(F)(F)F)CC1(O)c1ccccc1 (stereo not given) | inconclusive [inhibitor, single point] |  |
| C=C(C)CNC(=O)CCc1nnc(C2(c3ccc(Cl)cc3)CCC2)o1 | inconclusive [inhibitor, single point] |  |
| Cn1c(=O)c(-c2cc(F)cc(F)c2)nc2cnc(Nc3ccccc3)nc21 | inconclusive [inhibitor, single point] |  |
| COc1cc(/C=C/C(=O)c2c(O)cc(C)oc2=O)ccc1O |  | inactive: -2.74% [at 9.04 µM] |
| COC(=O)c1ccc(CSc2ccc3nnc(-c4ccccn4)n3n2)o1 | inconclusive [inhibitor, single point] |  |
| CCc1ccc(C(C)NC(=O)C2(C)CC2(Br)Br)cc1 (stereo not given) | inactive |  |
| COc1ccc(NC(=O)N2CCCC(c3nc(-c4ccc(C(C)C)cc4)no3)C2)cc1 (stereo not given) | active: 20.6 µM |  |
| CCCN(C(=O)CCNC(=O)Cn1cnc2ccccc2c1=O)c1cccc(C)c1 | inconclusive [inhibitor, partial curve, poor fit] |  |

| Structure (SMILES) | Potency | activity change, negative = growth inhibition |
| --- | --- | --- |
| O=C(Cn1cnc2c(nnn2-c2ccccc2)c1=O)N1CCCc2ccccc21 | inconclusive [inhibitor, single point] |  |
| CC1(c2ccc(Cl)cc2)NC(=O)N(CC(=O)NC2CCCCC2)C1=O (stereo not given) | inconclusive [inhibitor, full curve, poor fit] |  |
| COC(=O)C1(CC2CC(c3ccncc3)=NO2)CCN(C(=O)OC(C)(C)C)CC1 (stereo not given) | active: 20.6 µM |  |
| CCc1nc2c(OCc3ccc(Cl)cc3Cl)cccn2c1N(C)C(=O)c1ccccc1F | inconclusive [inhibitor, single point] |  |
| COCCn1c(SCC(=O)c2ccccc2)nc2ccccc2c1=O | inconclusive [inhibitor, partial curve] |  |
| O=C(c1c[nH]c2ccccc12)C(O)C(c1ccccc1)N1CCOCC1 (stereo not given) | inconclusive [inhibitor, partial curve] |  |
| Cc1ccc(-n2c(SCC(=O)NCc3ccc4c(c3)OCO4)nnc2-c2cccnc2)c(C)c1 | inactive |  |
| O=C(Cn1cc2c(n1)CCCC2)NC1CCCCCC1 | inactive |  |
| O=S1(=O)CCO[C@H]2CCCC[C@@H]2N1Cc1ccccc1Br | inconclusive [inhibitor, single point] |  |
| CCOC(=O)N1CCN(C(=O)CCn2nc(-c3ccccc3)ccc2=O)CC1 | inconclusive [inhibitor, single point] |  |
| COc1cc(C2Nc3ccccc3C(=O)N2Cc2ccco2)cc(OC)c1OC (stereo not given) | inconclusive [inhibitor, single point] |  |
| COc1ccc(COC(=O)c2c(C)nn(-c3ccccc3)c2Cl)cc1 | inactive |  |
| COc1ccc(-c2cc(-c3ccccc3)c(C#N)c(SCC(=O)Nc3ncc(C)s3)n2)cc1 | inconclusive [inhibitor, partial curve, poor fit] |  |
| Cc1sc2nc(CSCC(=O)N(C)CC(=O)Nc3ccc(F)cc3)[nH]c(=O)c2c1C | inconclusive [inhibitor, single point] |  |
| O=S(=O)(Cc1ccccc1Cl)N1CCN(Cc2ccc3c(c2)OCO3)CC1 | inconclusive [inhibitor, single point] |  |
| Cc1cc(NC(=O)C2CCCCC2C(=O)O)no1 (stereo not given) | inactive |  |
| CC(=NCc1ccco1)c1c(C)[nH]n(-c2nc3ccccc3s2)c1=O | inconclusive [inhibitor, partial curve] |  |
| O=C(/C=C/c1ccc([N+](=O)[O-])cc1)c1cccnc1 | inconclusive [inhibitor, single point] |  |
| O=C(NC1CCCC1)C1CCN(c2cnccn2)CC1 | inactive |  |
| Cc1cccc2nc(CSc3nc4[nH]ncc4c(=O)n3-c3cccc(Cl)c3)cc(=O)n12 | inconclusive [inhibitor, single point] |  |
| Cn1c(NCc2c[nH]c3ccccc23)nc2ccccc21 | inconclusive [inhibitor, single point] |  |
| C(=C\c1ccccc1)/CN1CCN(Cc2nc(Cc3ccccc3)no2)CC1 | inconclusive [inhibitor, single point] |  |
